{"source": "the antibiotic and cytotoxicity screens of Wong et al. (2023)", "note": "Some of the results follow.", "data": [{"system": "HSkMC (human skeletal muscle cells)", "experiment": "cytotoxicity call (relative viability < 0.9)", "details": "10 µM", "values": [{"smiles": "COCCc1ccc(OCC(O)CNC(C)C)cc1.O=C(O)C(O)C(O)C(=O)O", "note": "(configuration not stated)", "cytotoxicity call": "inactive"}, {"smiles": "C[C@@H]1CN([C@H](C)CO)C(=O)c2cc(NC(=O)CCC(F)(F)F)ccc2O[C@@H](C)CCCCO[C@H]1CN(C)Cc1ccncc1", "cytotoxicity call": "inactive"}, {"smiles": "C[C@@H]1CN([C@H](C)CO)C(=O)Cc2cc(NC(=O)CCCCCC(=O)Nc3ccccc3N)ccc2O[C@H]1CN(C)Cc1ccccc1", "cytotoxicity call": "inactive"}, {"smiles": "CNC[C@H]1OCCCC[C@@H](C)Oc2ccc(NC(=O)Nc3cccc4ccccc34)cc2C(=O)N([C@H](C)CO)C[C@H]1C", "cytotoxicity call": "inactive"}, {"smiles": "COc1ccc(S(=O)(=O)Nc2ccc3c(c2)C(=O)N([C@@H](C)CO)C[C@H](C)[C@@H](CN(C)Cc2ccc4c(c2)OCO4)OCCCC[C@H](C)O3)cc1", "cytotoxicity call": "inactive"}, {"smiles": "CCS(=O)(=O)N1C[C@]2(CN(Cc3cc(ccc3F)F)C2)c2c(n(c3cc(ccc23)OC)C)[C@H]1CO", "cytotoxicity call": "inactive"}, {"smiles": "CC(=O)Nc1nonc1N1CCCC1=O", "cytotoxicity call": "inactive"}, {"smiles": "CC(C)NC(=O)NCC[C@H]1CC[C@H](NC(=O)CN(C)C)[C@H](CO)O1", "cytotoxicity call": "inactive"}, {"smiles": "N#CCSc1n[nH]c(=O)[nH]c1=O", "cytotoxicity call": "inactive"}, {"smiles": "Cc1noc(C)c1S(=O)(=O)N(C)C[C@H]1OCCCC[C@@H](C)Oc2ccc(NS(C)(=O)=O)cc2C(=O)N([C@H](C)CO)C[C@@H]1C", "cytotoxicity call": "inactive"}, {"smiles": "C[C@@H]1CCCCO[C@H](CN(C)CC2CCCCC2)[C@@H](C)CN([C@H](C)CO)C(=O)c2cc(NC(=O)Nc3ccc4c(c3)OCO4)ccc2O1", "cytotoxicity call": "inactive"}, {"smiles": "COc1ccc(CN(C)C[C@H]2OCCCC[C@@H](C)Oc3ccc(NC(=O)NC(C)C)cc3C(=O)N([C@H](C)CO)C[C@@H]2C)cc1", "cytotoxicity call": "inactive"}]}]}
